Read-outs that look alike come from different tables or passages of the source.
Legend:
[1] = molecular target: T1, FP3 (Plasmodium falciparum, UniProt Q8IIL0); test: biochemical
T1 sequence (Q8IIL0 243-492): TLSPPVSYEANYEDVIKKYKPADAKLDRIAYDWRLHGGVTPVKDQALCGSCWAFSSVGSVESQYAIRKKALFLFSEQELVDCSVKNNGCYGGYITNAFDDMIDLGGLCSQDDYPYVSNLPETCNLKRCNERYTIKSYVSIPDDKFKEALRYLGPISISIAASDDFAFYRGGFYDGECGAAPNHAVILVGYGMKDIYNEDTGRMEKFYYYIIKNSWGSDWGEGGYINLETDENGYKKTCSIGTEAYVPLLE

[2] = molecular target: T2, DPAP1 (Plasmodium falciparum, UniProt Q8IIJ9); test: biochemical; assay type: biochemical; conditions: for DPAP1 inhibition Model: COM competitive, UNC uncompetitive, P-M partial mixed, P-C partial competitive, P-NC partial non-competitive, P-U partial uncompetitive; for DPAP1 α: factor by which Km is modified at saturating inhibitor; for Ki: global fit to MOI model, standard error of fit in parentheses
T2 sequence (Q8IIJ9 370-599 limits assumed): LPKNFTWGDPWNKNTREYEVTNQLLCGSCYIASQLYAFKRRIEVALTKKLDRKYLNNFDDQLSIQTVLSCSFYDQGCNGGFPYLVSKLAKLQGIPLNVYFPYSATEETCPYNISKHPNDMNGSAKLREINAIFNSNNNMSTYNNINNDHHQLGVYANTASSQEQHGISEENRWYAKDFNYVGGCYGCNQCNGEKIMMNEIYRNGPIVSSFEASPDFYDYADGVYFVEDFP
T2 sequence (Q8IIJ9 28-209 limits assumed): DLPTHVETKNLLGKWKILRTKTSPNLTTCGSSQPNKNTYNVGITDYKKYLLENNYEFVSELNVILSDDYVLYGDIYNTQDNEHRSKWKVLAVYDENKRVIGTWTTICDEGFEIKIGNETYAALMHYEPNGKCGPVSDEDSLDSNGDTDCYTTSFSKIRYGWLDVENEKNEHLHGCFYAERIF
T2 sequence (Q8IIJ9 600-700 limits assumed): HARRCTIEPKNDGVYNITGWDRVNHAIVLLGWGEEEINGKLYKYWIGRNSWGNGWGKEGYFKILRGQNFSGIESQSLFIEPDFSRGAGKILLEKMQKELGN

[3] = molecular target: bovine CatC (Bos taurus, UniProt Q3ZCJ8); test: Dose response inhibition assay, CatC with GR-AMC substrate; conditions: for Maximum % Inhibition CatC: substrate at Km
[4] = molecular target: T3, DPAP3 (Plasmodium falciparum, UniProt Q8I1Y2); conditions: substrate at Km
[5] = molecular target: T2, DPAP1; test: biochemical; assay type: biochemical
[6] = molecular target: CatC (Bos taurus, UniProt Q3ZCJ8); test: Mechanism of inhibition studies, CatC; assay type: biochemical, bovine; conditions: for CatC β: factor by which kcat (Vmax) is modified at saturating inhibitor
[7] = molecular target: T3, DPAP3; test: biochemical; conditions: 0.5 h, read-out: Maximum % Inhibition DPAP3
[8] = molecular target: T1, FP3; conditions: for Maximum % Inhibition FP3: substrate at Km; for IC50: read-out: IC50 FP3, FP3 1 nM, Z-LR-AMC at Km (20 μM), N.I. = no inhibition
[9] = system: P. falciparum; test: Standard 72 h parasite replication assay; assay type: cell-based, Plasmodium falciparum; conditions: 72h replication assay
[10] = molecular target: T2, DPAP1; test: biochemical; set-up: Endpoint HTS of DPAP1 in P. falciparum trophozoite lysate, (PR)2Rho cleavage, fluorescence 523 nm, 10 uM compound; conditions: read-out: % inhibition
[11] = system: human foreskin fibroblast cells; test: Cytotoxicity assay, CellTiter-Glo; conditions: 24h treatment, 4 biological replicates
[12] = system: WI-38 primary lung fibroblast; conditions: cited from earlier work
[13] = molecular target: T2, DPAP1; test: biochemical; assay type: biochemical; conditions: 10 μM compound, parasite lysates, (PR)2Rho, 30 min end-point
[14] = read-out: IC50 CatC, CatC 1 nM, GR-AMC at Km (40 μM), N.I. = no inhibition
[15] = VR-ACC at Km, > = inhibition at the highest concentration, no baseline reached
[16] = purified DPAP1 1 nM, VR-ACC at Km (20 μM), standard error in parentheses, ~ = approximate, concentration with 50% inhibition

T3 sequence (Q8I1Y2 entry or part of it): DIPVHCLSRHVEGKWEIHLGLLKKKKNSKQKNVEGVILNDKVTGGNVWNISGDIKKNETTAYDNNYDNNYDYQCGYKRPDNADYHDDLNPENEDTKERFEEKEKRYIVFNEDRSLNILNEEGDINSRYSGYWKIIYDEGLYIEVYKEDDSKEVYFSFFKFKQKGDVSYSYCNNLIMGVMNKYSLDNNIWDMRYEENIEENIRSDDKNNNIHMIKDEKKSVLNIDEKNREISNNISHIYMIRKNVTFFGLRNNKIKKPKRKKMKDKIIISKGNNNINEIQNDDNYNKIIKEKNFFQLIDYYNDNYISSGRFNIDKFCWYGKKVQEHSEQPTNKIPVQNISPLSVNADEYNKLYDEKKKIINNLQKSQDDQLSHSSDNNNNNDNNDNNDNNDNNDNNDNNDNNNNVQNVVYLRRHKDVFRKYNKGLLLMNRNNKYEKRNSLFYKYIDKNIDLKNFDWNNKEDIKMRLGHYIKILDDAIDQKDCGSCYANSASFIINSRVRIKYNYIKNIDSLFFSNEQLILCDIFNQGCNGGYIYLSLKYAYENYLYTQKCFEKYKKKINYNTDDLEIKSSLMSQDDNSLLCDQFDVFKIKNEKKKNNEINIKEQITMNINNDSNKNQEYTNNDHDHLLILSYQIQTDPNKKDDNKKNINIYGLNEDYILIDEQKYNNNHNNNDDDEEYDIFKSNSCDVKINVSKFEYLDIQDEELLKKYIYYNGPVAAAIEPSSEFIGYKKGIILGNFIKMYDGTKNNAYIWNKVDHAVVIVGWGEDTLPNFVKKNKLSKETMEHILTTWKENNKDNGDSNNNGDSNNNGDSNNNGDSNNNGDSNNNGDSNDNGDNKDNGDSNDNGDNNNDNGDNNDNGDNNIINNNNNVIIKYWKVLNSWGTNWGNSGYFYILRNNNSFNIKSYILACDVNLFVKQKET
bovine CatC, sequence (Q3ZCJ8 231-394 limits assumed): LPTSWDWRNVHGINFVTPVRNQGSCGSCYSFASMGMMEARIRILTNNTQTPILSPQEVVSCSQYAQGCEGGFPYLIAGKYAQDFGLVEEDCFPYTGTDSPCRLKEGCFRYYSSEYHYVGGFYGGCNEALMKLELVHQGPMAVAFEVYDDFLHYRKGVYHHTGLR
bovine CatC, sequence (Q3ZCJ8 25-134 limits assumed): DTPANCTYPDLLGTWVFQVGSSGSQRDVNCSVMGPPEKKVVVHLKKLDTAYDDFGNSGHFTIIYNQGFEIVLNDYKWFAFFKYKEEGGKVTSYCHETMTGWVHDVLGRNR
bovine CatC, sequence (Q3ZCJ8 395-463 limits assumed): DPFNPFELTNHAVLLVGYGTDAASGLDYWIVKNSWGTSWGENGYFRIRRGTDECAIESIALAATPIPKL
CatC, sequence (Q3ZCJ8 231-394 limits assumed): as the sequence (Q3ZCJ8 231-394 limits assumed) above
CatC, sequence (Q3ZCJ8 25-134 limits assumed): as the sequence (Q3ZCJ8 25-134 limits assumed) above
CatC, sequence (Q3ZCJ8 395-463 limits assumed): as the sequence (Q3ZCJ8 395-463 limits assumed) above

Row | Molecule | DPAP1 inhibition Model [2] | DPAP1 α [2] | Ki [2] [nM] | Maximum % Inhibition DPAP3 [4] | Maximum % Inhibition FP3 [8] | IC50 [3, 14] [nM] | Maximum % Inhibition CatC [3] | Maximum % Inhibition DPAP1 [5, 15] | IC50 [5, 16] [nM] | IC50 [8] [nM] | DPAP1 % Inhibition @ 10 uM [13] [%] | further results
1 | CSc1nc(S)c2c3c(sc2n1)CCC3 [SMDC153437A, CSC1=NC(S)=C2C3=C(CCC3)SC2=N1] | P-M | 4.0 (1.5) | 60 | fully inhibits | fully inhibits | – | – | – | – | – | – | IC50 [1]: 2300 nM; Emax ([1]; 0.5 h, read-out: Maximum % Inhibition FP3, substrate at Km): 100%; DPAP1 β ([2]; factor by which kcat (Vmax) is modified at saturating inhibitor, listed as 153437A): 0.35 (0.05); IC50 [3]: 1200 nM; Emax ([3]; 0.5 h, read-out: Maximum % Inhibition CatC, substrate at Km): 47%; IC50 [5]: 270 nM; Emax ([5]; 0.5 h, VR-ACC at Km, > = inhibition at the highest concentration, no baseline reached, read-out: Maximum % Inhibition DPAP1): 80%; CatC inhibition Model ([6]; COM competitive, UNC uncompetitive, P-M partial mixed, P-C partial competitive, P-NC partial non-competitive, P-U partial uncompetitive): P-M; Effect on CatC activity at saturating concentrations of substrate ([6]; Fig 5H): increases the activity of CatC; CatC α ([6]; factor by which Km is modified at saturating inhibitor): 2.6 (0.6); CatC β [6]: > 1; CatC β ([6]; listed as 153437A): 1.7 (0.1); Ki ([6]; global fit to MOI model, standard error of fit in parentheses, read-out: CatC Ki): 2400 nM; Emax [7]: 100%; Selectivity towards FP3 compared to FP2 ([8]; ratio of IC50 values): more than 50 fold; inhibition at 100 µM ([9]; Plasmodium falciparum, 100 μM, read-out: Pf % Inh @ 100 μM): 28%
2 | CC[C@H](NC(=O)[C@H](CS(=O)(=O)Cc1ccccc1)O[Si](C(C)C)(C(C)C)C(C)C)C(=O)c1nc2ccccc2o1 [compound 280693, CRA-016024] | – | – | – | – | – | – | – | – | – | – | – | inhibition at 10 µM [10]: -0.214%
3 | Brc1ccc(cc1)C(=O)c2nocc2C(=O)c3cccnc3 [SMDC112054] | COM | = ∞ | 440 | > 35% | 100 (2) % | 900 | 100 (3) % | 100 (1) % | 2700 | 520 | 92 | Tox EC50 / Cytox EC50 [11]: 350 (100) μM; Cell Toxicity WI-38 primary lung fibroblast %Inhibition @ 10 uM ([12]; 10 uM, ref SMDC Assay #440): 12%; Pf % Inh @ 100 μM ([9]; 100 μM): 83 (9) %; EC50 ([9]; 3 biological replicates, read-out: Pf EC50): 35 µM
4 | FC(F)(F)c1cc(nc(SCC(=O)N2CCOCC2)c1C#N)c3cccs3 [SMDC97214] | COM | = ∞ | 3000 | > 70% | fully inhibits | 110 | 80% | fully inhibits | 7200 | 680 | 73 | Maximum % Inhibition CatC ([3]; listed as 97214): 78 (1) %; Maximum % Inhibition DPAP1 ([5]; VR-ACC at Km, > = inhibition at the highest concentration, no baseline reached, listed as 97214): 100 (3) %; Maximum % Inhibition FP3 ([8]; listed as 97214): 97 (3) %; Cell Toxicity WI-38 primary lung fibroblast %Inhibition @ 10 uM [12]: -2%
